Measured values published in the RNAGym collection of RNA variant scans (doi:10.7554/elife.90254).
The source gives no read counts; variants with many changes may rest on few reads.

B1: LINE1-mini (parent)
chain: GGCAGAGCUCAACACAGCGUGGCAAAGUGGCUGUGGCUAGACUGCC

Variants of: B1
Assay: self-cleavage, relative activity (ratio to wild type); higher = more cleavage; in vitro, sequencing; the parent is a self-cleaving ribozyme

Variant | self-cleavage
G1A C3U A25G | 0.51
G1A A25U A26G G44C | 0.06
G1A A4U G29A C45A | 0.12
G1A C3U G21A G30U U32A | 0.1
G1A C3U G5U C8U U9G C13U U28A G30A G44C | 0.27
G1A C3U C10A G17C G21C G29U G35C | 0.04
G1A A4C G5A C23U G29C | 0.05
G1A C10A C13U A16U G21A A26G G27U C37U | 0.05
G1A C10G G19A C45U | 0.22
G1A C13U G30U C45U | 0.09
G1A A24G U32A | 0.11
G1A G2C C10U A11G A14G G33C | 0.01
G1A C13A G29U | 0.19
G1A A11G G40A | 0.04
G1A C15G C18U G33A C46U | 0.04
G1A G2A C10A A14U U38A A39C G44U | 0.49
G1A A16U G33U | 0.07
G1A C15A U32A U34G | 0.05
G1A C18U U20C | 0.41
G1A C3G U20G A41G C42U | 0.29
G1A A4C A11U A12C C15G | 0

Variant | self-cleavage
G1A C3G G7A | 0.58
G1A A16G U38C | 0.02
G1A C18A U20G G35U G36A | 0.06
G1A A6C G21A | 0.91
G1A A12U G19U U28G | 0.11
G1A C15A G17A | 0.02
G1A A11C C15A G30U C42G | 0.01
G1A A11U C13G A25G A41C | 0.02
G1A A4G C8U | 0.08
G1A A4G G17U C18U U20C A24U C45A | 0.03
G1A C10A C46A | 0.03
G1A C8U U34C | 0.19
G1A A25C A39U | 0.22
G1A G2C G5U A16C U32A U43A C45A | 0.01
G1A A11C G17A A26U G40U | 0.03
G1A A24U A25U U32C C37A | 0.05
G1A C18A C46G | 2.5
G1A C10G U20A C46U | 0.01
G1A A6C C13G G29C G36C | 0.21
G1A C13G G21U | 0.05
G1A C3U A6U G29U | 1.1

Variant | self-cleavage
G1A C10A A11U A26U | 0.02
G1A A12U U20C U32A | 0.01
G1A C13A A14U U34C | 0.05
G1A A25G G29C | 2
G1A C23U U34G | 0.09
G1A G2C A6C A11U G30U U34G A41U | 0
G1A C13A A39G | 0.11
G1A A6G G7A | 0.1
G1A A6C A12U A14C U43A | 0.02
G1A C10U C45A C46U | 0.07
G1A A25U U28G | 0.07
G1A C18G G22A G44A | 0.2
G1A C10A G27C U38A | 1.18
G1A A12G A16U | 0.05
G1A C3U C8U G27U G29U C42A | 0.55
G1A C31A G33U | 0.09
G1A C37A U38A | 0.04
G1A C8U G21U G29A G35A A41U | 0.07
G1A C10G G19A | 0.2
G1A G2A G17U G29C | 0.1
G1A C3G A11G G21C U32C | 0.01

Variant | self-cleavage
G1A A26U G29U G30A G36U | 0.06
G1A A14C U38A G44A | 0.1
G1A C3A A4C U9A C18U G19C A25C | 0.24
G1A C3G A39G | 0.26
G1A A4C G5C C8G | 0.11
G1A A24C G27U | 0.19
G1A A26C G30C | 1.02
G1A C13G C18G | 0.03
G1A C23G C31U G35U | 0.02
G1A A6G C15G U38C | 0.04
G1A C8U C15G G17A | 0.34
G1A A4G A6G C10A | 0.03
G1A A11C A24C G29A | 0.04
G1A A24U G44U | 0.04
G1A A6G A41G | 0.53
G1A A4C U9A G35C | 0.04
G1A A16U G22A A25U | 0.08
G1A C8A A25U U32A C37G | 0.3
G1A A26C A41U | 2.09
G1A G2A A16G A24C | 1.05
